# PMC12820563
# Some of the results follow. The list includes weakly bound sequences.
# Target: T1, MBP-FoxP3dN (UniProt Q99JB6)
# T1 sequence: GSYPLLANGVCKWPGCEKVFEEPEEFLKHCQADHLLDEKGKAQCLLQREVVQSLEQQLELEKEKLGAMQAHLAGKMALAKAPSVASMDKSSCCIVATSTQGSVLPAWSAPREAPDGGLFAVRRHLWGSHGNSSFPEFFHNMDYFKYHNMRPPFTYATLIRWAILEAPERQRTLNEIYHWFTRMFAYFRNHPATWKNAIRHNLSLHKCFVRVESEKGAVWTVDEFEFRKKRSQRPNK
# Experiment: PD-seq (MBP pull-down with sequencing)
# Conditions: 20 mM Tris-HCl pH 7.5, 100 mM NaCl, 1.5 mM MgCl2, 0.4 uM protein, 0.1 uM dsDNA library, 30 min, room temperature, amylose pull-down; high values mean tight binding; double strand, one strand shown
row,Sequence,binding signal (RPM ratio (pull-down/input))
1,GATGATTGTTCTCCCAGCTGATGAATTAGTAAAATCGAGTAAACAAATTTTCCTAATCTTTCTGTTCAAGCGCCATCTAC,0.249
2,GATGATTGTTCTCCCAGCTGATGAATTCGCTATTTCGAGTAAACAAATTTTCCTAATCTTTCTGTTCAAGCGCCATCTAC,1.67
3,GATGATTGTTCTCCCAGCTGATGAATTGCGAATCTCGAGTAAACAAATTTTCCTAATCTTTCTGTTCAAGCGCCATCTAC,2.16
4,GATGATTGTTCTCCCAGCTGATGAATTTTAACCGTCGAGTAAACAAATTTTCCTAATCTTTCTGTTCAAGCGCCATCTAC,0.248
5,GATGATTGTTCTCCCAGCTGATGAATTAGAGAATTCGAGTAAACAAATTTTCCTAATCTTTCTGTTCAAGCGCCATCTAC,0.695
6,GATGATTGTTCTCCCAGCTGATGAATTTGGATTCTCGAGTAAACAAATTTTCCTAATCTTTCTGTTCAAGCGCCATCTAC,0.785
7,GATGATTGTTCTCCCAGCTGATGAATTACCCAACTCGAGTAAACAAATTTTCCTAATCTTTCTGTTCAAGCGCCATCTAC,0.253
8,GATGATTGTTCTCCCAGCTGATGAATTTTGCAACTCGAGTAAACAAATTTTCCTAATCTTTCTGTTCAAGCGCCATCTAC,6.24
9,GATGATTGTTCTCCCAGCTGATGAATTCTAGGCCTCGAGTAAACAAATTTTCCTAATCTTTCTGTTCAAGCGCCATCTAC,0.39
10,GATGATTGTTCTCCCAGCTGATGAATTACGGACCTCGAGTAAACAAATTTTCCTAATCTTTCTGTTCAAGCGCCATCTAC,0.269
11,GATGATTGTTCTCCCAGCTGATGAATTAATTCAGTCGAGTAAACAAATTTTCCTAATCTTTCTGTTCAAGCGCCATCTAC,0.216
12,GATGATTGTTCTCCCAGCTGATGAATTTCCGGAATCGAGTAAACAAATTTTCCTAATCTTTCTGTTCAAGCGCCATCTAC,0.165
13,GATGATTGTTCTCCCAGCTGATGAATTAAAACGGTCGAGTAAACAAATTTTCCTAATCTTTCTGTTCAAGCGCCATCTAC,0.243
14,GATGATTGTTCTCCCAGCTGATGAATTCTGTTGCTCGAGTAAACAAATTTTCCTAATCTTTCTGTTCAAGCGCCATCTAC,3.78
15,GATGATTGTTCTCCCAGCTGATGAATTGCGCTTGTCGAGTAAACAAATTTTCCTAATCTTTCTGTTCAAGCGCCATCTAC,4.45
16,GATGATTGTTCTCCCAGCTGATGAATTCCGGTTGTCGAGTAAACAAATTTTCCTAATCTTTCTGTTCAAGCGCCATCTAC,1.05
17,GATGATTGTTCTCCCAGCTGATGAATTGGACCTCTCGAGTAAACAAATTTTCCTAATCTTTCTGTTCAAGCGCCATCTAC,0.349
18,GATGATTGTTCTCCCAGCTGATGAATTAGCAGGATCGAGTAAACAAATTTTCCTAATCTTTCTGTTCAAGCGCCATCTAC,0.262
19,GATGATTGTTCTCCCAGCTGATGAATTGATATTTTCGAGTAAACAAATTTTCCTAATCTTTCTGTTCAAGCGCCATCTAC,0.879
20,GATGATTGTTCTCCCAGCTGATGAATTATCTCTATCGAGTAAACAAATTTTCCTAATCTTTCTGTTCAAGCGCCATCTAC,0.348
21,GATGATTGTTCTCCCAGCTGATGAATTGTCAGAGTCGAGTAAACAAATTTTCCTAATCTTTCTGTTCAAGCGCCATCTAC,0.234

row,Sequence,binding signal (RPM ratio (pull-down/input))
1,GATGATTGTTCTCCCAGCTGATGAATTGTTGTAATCGAGTAAACAAATTTTCCTAATCTTTCTGTTCAAGCGCCATCTAC,2.72
2,GATGATTGTTCTCCCAGCTGATGAATTAAACAGTTCGAGTAAACAAATTTTCCTAATCTTTCTGTTCAAGCGCCATCTAC,0.58
3,GATGATTGTTCTCCCAGCTGATGAATTCAGATTTTCGAGTAAACAAATTTTCCTAATCTTTCTGTTCAAGCGCCATCTAC,0.454
4,GATGATTGTTCTCCCAGCTGATGAATTGCCAAGATCGAGTAAACAAATTTTCCTAATCTTTCTGTTCAAGCGCCATCTAC,0.4
5,GATGATTGTTCTCCCAGCTGATGAATTCTCTTACTCGAGTAAACAAATTTTCCTAATCTTTCTGTTCAAGCGCCATCTAC,0.303
6,GATGATTGTTCTCCCAGCTGATGAATTCAAGGTGTCGAGTAAACAAATTTTCCTAATCTTTCTGTTCAAGCGCCATCTAC,0.471
7,GATGATTGTTCTCCCAGCTGATGAATTGCTACCCTCGAGTAAACAAATTTTCCTAATCTTTCTGTTCAAGCGCCATCTAC,0.591
8,GATGATTGTTCTCCCAGCTGATGAATTGCCTAGCTCGAGTAAACAAATTTTCCTAATCTTTCTGTTCAAGCGCCATCTAC,0.397
9,GATGATTGTTCTCCCAGCTGATGAATTTCAACTTTCGAGTAAACAAATTTTCCTAATCTTTCTGTTCAAGCGCCATCTAC,0.463
10,GATGATTGTTCTCCCAGCTGATGAATTTGCTGGGTCGAGTAAACAAATTTTCCTAATCTTTCTGTTCAAGCGCCATCTAC,3.21
11,GATGATTGTTCTCCCAGCTGATGAATTCCTTCGGTCGAGTAAACAAATTTTCCTAATCTTTCTGTTCAAGCGCCATCTAC,0.174
12,GATGATTGTTCTCCCAGCTGATGAATTTTAAACGTCGAGTAAACAAATTTTCCTAATCTTTCTGTTCAAGCGCCATCTAC,0.285
13,GATGATTGTTCTCCCAGCTGATGAATTTTGAAAATCGAGTAAACAAATTTTCCTAATCTTTCTGTTCAAGCGCCATCTAC,0.267
14,GATGATTGTTCTCCCAGCTGATGAATTCATTTGATCGAGTAAACAAATTTTCCTAATCTTTCTGTTCAAGCGCCATCTAC,0.502
15,GATGATTGTTCTCCCAGCTGATGAATTTACGGATTCGAGTAAACAAATTTTCCTAATCTTTCTGTTCAAGCGCCATCTAC,0.469
16,GATGATTGTTCTCCCAGCTGATGAATTCTTGGAGTCGAGTAAACAAATTTTCCTAATCTTTCTGTTCAAGCGCCATCTAC,0.21
17,GATGATTGTTCTCCCAGCTGATGAATTTTTACCCTCGAGTAAACAAATTTTCCTAATCTTTCTGTTCAAGCGCCATCTAC,0.202
18,GATGATTGTTCTCCCAGCTGATGAATTCTCCAGGTCGAGTAAACAAATTTTCCTAATCTTTCTGTTCAAGCGCCATCTAC,0.162
19,GATGATTGTTCTCCCAGCTGATGAATTGTGTATATCGAGTAAACAAATTTTCCTAATCTTTCTGTTCAAGCGCCATCTAC,6.5
20,GATGATTGTTCTCCCAGCTGATGAATTGTCTGATTCGAGTAAACAAATTTTCCTAATCTTTCTGTTCAAGCGCCATCTAC,0.434
21,GATGATTGTTCTCCCAGCTGATGAATTAATCTGTTCGAGTAAACAAATTTTCCTAATCTTTCTGTTCAAGCGCCATCTAC,0.31

row,Sequence,binding signal (RPM ratio (pull-down/input))
1,GATGATTGTTCTCCCAGCTGATGAATTGAACCGCTCGAGTAAACAAATTTTCCTAATCTTTCTGTTCAAGCGCCATCTAC,0.274
2,GATGATTGTTCTCCCAGCTGATGAATTACCCGCTTCGAGTAAACAAATTTTCCTAATCTTTCTGTTCAAGCGCCATCTAC,0.31
3,GATGATTGTTCTCCCAGCTGATGAATTTGAAGCTTCGAGTAAACAAATTTTCCTAATCTTTCTGTTCAAGCGCCATCTAC,0.387
4,GATGATTGTTCTCCCAGCTGATGAATTATGTATCTCGAGTAAACAAATTTTCCTAATCTTTCTGTTCAAGCGCCATCTAC,5.75
5,GATGATTGTTCTCCCAGCTGATGAATTTGTGATGTCGAGTAAACAAATTTTCCTAATCTTTCTGTTCAAGCGCCATCTAC,5.62
6,GATGATTGTTCTCCCAGCTGATGAATTTACAGTGTCGAGTAAACAAATTTTCCTAATCTTTCTGTTCAAGCGCCATCTAC,0.75
7,GATGATTGTTCTCCCAGCTGATGAATTCGCTACGTCGAGTAAACAAATTTTCCTAATCTTTCTGTTCAAGCGCCATCTAC,0.43
8,GATGATTGTTCTCCCAGCTGATGAATTTTAAGTTTCGAGTAAACAAATTTTCCTAATCTTTCTGTTCAAGCGCCATCTAC,0.44
9,GATGATTGTTCTCCCAGCTGATGAATTCGAAGGATCGAGTAAACAAATTTTCCTAATCTTTCTGTTCAAGCGCCATCTAC,0.213
10,GATGATTGTTCTCCCAGCTGATGAATTCATACCATCGAGTAAACAAATTTTCCTAATCTTTCTGTTCAAGCGCCATCTAC,0.563
11,GATGATTGTTCTCCCAGCTGATGAATTAAAGGCCTCGAGTAAACAAATTTTCCTAATCTTTCTGTTCAAGCGCCATCTAC,0.548
12,GATGATTGTTCTCCCAGCTGATGAATTCAGCATCTCGAGTAAACAAATTTTCCTAATCTTTCTGTTCAAGCGCCATCTAC,6.49
13,GATGATTGTTCTCCCAGCTGATGAATTCTATCCGTCGAGTAAACAAATTTTCCTAATCTTTCTGTTCAAGCGCCATCTAC,0.321
14,GATGATTGTTCTCCCAGCTGATGAATTATCCGTCTCGAGTAAACAAATTTTCCTAATCTTTCTGTTCAAGCGCCATCTAC,0.269
15,GATGATTGTTCTCCCAGCTGATGAATTCATTTATTCGAGTAAACAAATTTTCCTAATCTTTCTGTTCAAGCGCCATCTAC,2.26
16,GATGATTGTTCTCCCAGCTGATGAATTTGCGGTGTCGAGTAAACAAATTTTCCTAATCTTTCTGTTCAAGCGCCATCTAC,2.57
17,GATGATTGTTCTCCCAGCTGATGAATTGACCAAGTCGAGTAAACAAATTTTCCTAATCTTTCTGTTCAAGCGCCATCTAC,0.19
18,GATGATTGTTCTCCCAGCTGATGAATTGCTAGCCTCGAGTAAACAAATTTTCCTAATCTTTCTGTTCAAGCGCCATCTAC,0.782
19,GATGATTGTTCTCCCAGCTGATGAATTCCTCAGTTCGAGTAAACAAATTTTCCTAATCTTTCTGTTCAAGCGCCATCTAC,0.231
20,GATGATTGTTCTCCCAGCTGATGAATTACGCTTATCGAGTAAACAAATTTTCCTAATCTTTCTGTTCAAGCGCCATCTAC,1.57
21,GATGATTGTTCTCCCAGCTGATGAATTCCATTGGTCGAGTAAACAAATTTTCCTAATCTTTCTGTTCAAGCGCCATCTAC,0.66
